# From PubChem BioAssay AID1347417 (National Center for Advancing Translational Sciences (NCATS), 2020)
# Screen size: about 120,000 compounds; about 5,300 (4.4%) were called active. Inconclusive results, whose numbers are uncertain, are shown with a selection of clear calls. Calls come from the whole dose curve; as a rule, active = well fitted inhibition curve with a large enough effect; inconclusive = small, poorly fitted or top-dose-only effect; inactive = no such curve, though single readings can be large or run the other way. Where the call is inconclusive, the potency comes from a doubtful curve fit.
# Test: qHTS Primary assay for Inhibitors of Plasmodium falciparum Dd2 growth in vitro; note: nearly all actives have a fitted effect of over 65% in size
# Conditions: P. falciparum Dd2 growth, SYBR Green, 72 h; series mostly up to 28.9 µM
# Method in brief: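 Infected erythrocytes (Dd2, 0.3% parasitemia, 2.5% hematocrit final) are added to compound in RPMI-1640/Albumax II medium, grown 72 h at 37C in low oxygen, then lysed with saponin/Triton-X containing SYBR Green and read by fluorescence.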
# Potency is the fitted concentration of half-maximal effect; tags give direction and shape of the fitted curve.
row,SMILES,Potency
1,COc1ccc(CSc2nc3ncccc3[nH]2)cc1,"inconclusive: 11.2 µM [inhibitor, single point]"
2,CC1=C[C@@H](CNCc2ccncc2)[C@H](C(C)C)C[C@H]1Cc1nnc(-c2ccc(C)cc2)o1,"inconclusive: 3.98 µM [inhibitor, partial curve, poor fit]"
3,O=C(NC1CCN(c2cc(-c3ccc(Cl)cc3)[nH]n2)C1)c1ccccc1 (stereo unspecified),"inconclusive: 0.355 µM [inhibitor, full curve]"
4,CC(C)(C)NC(=O)N1CCCC1c1noc(COc2ccc(F)cc2)n1 (stereo unspecified),inactive
5,O=c1n(-c2ccc(F)cc2F)nc2n1CCN(Cc1ccc(F)cc1)C2,inactive
6,CC(=O)N1CCC(N[C@H]2CC(C)(C)[C@@H]3C[C@@](C)(O)CC[C@]23CCC(=O)NCCN2CCOCC2)CC1,"inconclusive: 3.16 µM [inhibitor, partial curve]"
7,CN(Cc1ccccc1)C(=O)CC1CCN(C(=O)CC2CCCC2)C1 (stereo unspecified),inactive
8,Cc1ccc(NC(=O)CN2C(=O)CCSc3ccc(S(=O)(=O)N4CCCC4)cc32)cc1,inactive
9,COc1ccccc1-c1cc(C(=O)N2CCCC2)nc2c1cnn2C,inactive
10,Cc1cccc(NC(=O)Cn2c(-c3cnccn3)nc(C)c(C)c2=O)c1,"inconclusive: 3.98 µM [inhibitor, single point]"
11,COc1ccc(C(=O)N2CC[C@@H](CC(=O)O)[C@@H](CCN3CCN(c4cccc(C(F)(F)F)c4)CC3)C2)cc1,"inconclusive: 11.2 µM [inhibitor, partial curve, poor fit]"
12,CN(C)C[C@@H]1CN(c2ccncn2)C[C@H]1NC(=O)Cc1cccs1,inactive
13,O=C(c1[nH]nc2c1COc1ccccc1-2)N1CCC(Cc2nncn2CC2CC2)CC1,"inconclusive: 0.282 µM [inhibitor, full curve, poor fit]"
14,COc1cc(C(=O)NC2CCN(c3cc(-c4ccc(F)cc4)[nH]n3)CC2)cc(OC)c1OC,inactive
15,CC(C)(C)CC(=O)N1CCN2C(=O)c3cc(-c4cccc(C(F)(F)F)c4)ccc3NC(=O)[C@H]2C1,inactive
16,Cc1noc(-c2ccc(C(C)(C)C)cc2)c1C(=O)NCCOc1ccccc1,inactive
17,CCOc1ccc(CC(=O)Nc2ccc3nc(N4CCCCC4)cc(C)c3c2)cc1OCC,"inconclusive: 17.8 µM [inhibitor, single point]"
18,O=C(NCCc1ccccc1)c1ccc2c(c1)N(Cc1ccccc1Cl)C(=O)c1ccccc1S2,"inconclusive: 10 µM [inhibitor, single point]"
19,CC(C)NC(=O)Nc1ccc2c(c1)N(C)C(=O)c1ccccc1S2,inactive
20,COC[C@H]1CCCN1C(=O)[C@@H](C)C1CC[C@@]2(C)CC[C@H](NC(=O)c3ccccn3)[C@@H](C)[C@@H]2[C@H]1O (stereo partly specified),inactive
21,O=C1NCc2ccccc2CC12CCCCN2Cc1ccccc1F (stereo unspecified),"inconclusive: 12.6 µM [inhibitor, partial curve]"
22,COc1cccc(CN(C)Cc2cccn2C)c1,"inconclusive: 7.08 µM [inhibitor, partial curve]"

row,SMILES,Potency
1,CCN(Cc1nc(C)no1)C(=O)c1cc(COc2cccc(F)c2)[nH]n1,inactive
2,CCN(CC)Cc1ccc2c(c1)CN(C(=O)NC1CCCC1)CCO2,"inconclusive: 10 µM [inhibitor, single point]"
3,CC(=O)N1C[C@@H](C(=O)NCc2ccc3c(c2)OCO3)[C@H](c2nc(C)no2)C1,inactive
4,COCCOC1CN(C2CCN(C(=O)c3ccco3)CC2)C12CCCCC2 (stereo unspecified),"inconclusive: 7.08 µM [inhibitor, partial curve]"
5,COc1ccc(-c2cc([C@H]3CN4CC[C@H]3C[C@@H]4CNS(=O)(=O)c3ccc(C)cc3)n(C)n2)cc1OC,"inconclusive: 3.16 µM [inhibitor, partial curve, poor fit]"
6,Cc1ccc(-c2cc3c(nc2-c2ccccc2)nc(C(=O)NCCN(C)C)n3C)cc1,"inconclusive: 3.55 µM [inhibitor, full curve, poor fit]"
7,COc1ccc(C(=O)NC(C(=O)NCC(C)C)C2CCN(C(=O)c3cccs3)CC2)cc1 (stereo unspecified),"inconclusive: 8.91 µM [inhibitor, partial curve]"
8,COCCN1C(=O)c2ccccc2C(C(=O)N2CCOCC2)C12CCCCC2 (stereo unspecified),inactive
9,Cn1cccc1C(=O)NCC(=O)N1CCCCCNC(=O)CC1c1ccccc1 (stereo unspecified),inactive
10,CCCS(=O)(=O)N1CCCCCCNC(=O)[C@@H]2CCC[C@@H]21,inactive
11,O=C(NCc1cccs1)c1ccc2c(c1)N(Cc1ccccc1Cl)C(=O)c1ccccc1S2,"inconclusive: 10 µM [inhibitor, single point]"
12,COc1ccc(-c2cc3nc(C)c(CCC(=O)N4CCN(c5cccc(Cl)c5)CC4)c(C)n3n2)c(OC)c1,active: 10 µM
13,Cc1cccc(NC(=O)Cn2c(=O)n(-c3ccccc3Cl)c(=O)c3c(C)c(C(=O)N(C)C)sc32)c1,"inconclusive: 17.8 µM [inhibitor, single point]"
14,CC1(C)C(=O)N(CC2CCOCC2)[C@H]2CN(Cc3cccc(OC(F)(F)F)c3)C[C@H]2[S+]1(=O)[O-],inactive
15,COc1ccc(CNC(=O)c2c(OC)cc(=O)n3c2CCCC3)c(OC)c1,inactive
16,Cc1cccc(C(=O)Nc2ccc(-c3nc4ccccc4s3)cc2Cl)c1,"inconclusive: 10 µM [inhibitor, partial curve, poor fit]"
17,CCCCOC(=O)c1ccc(Nc2ncnc3[nH]ncc23)cc1,"inconclusive: 11.2 µM [inhibitor, single point]"
18,CCN1C(=O)C2CC3(CCN(C(=O)CCc4nc5ccccc5[nH]4)CC3)CN2C1=O (stereo unspecified),"inconclusive: 1 µM [inhibitor, partial curve]"
19,CCCCN(CCCC)C(=O)CN(C)S(=O)(=O)c1ccc2c(c1)c(=O)n(C)c(=O)n2C,"inconclusive: 11.2 µM [inhibitor, partial curve, poor fit]"
20,CC(Nc1ccc(-c2nc(-c3ccncc3)no2)cc1[N+](=O)[O-])c1ccccc1 (stereo unspecified),"inconclusive: 0.794 µM [inhibitor, partial curve, poor fit]"
21,Cc1sc2c(c1C)c(=O)n(CCc1ccccc1)c(=O)n2Cc1cccc(F)c1,"inconclusive: 0.0282 µM [inhibitor, single point]"
22,Cc1ccc(-n2nc3c(N4CCC(C(=O)N5CCCCC5)CC4)nnc(C)c3c2C)cc1,"inconclusive: 11.2 µM [inhibitor, single point]"

row,SMILES,Potency
1,CCCN1C(=O)C(Cc2nc3ccccc3c(=O)n2CC)c2ccccc21 (stereo unspecified),"inconclusive: 8.91 µM [inhibitor, partial curve]"
2,Cn1nc(CN2CCN(c3ccncc3)CC2)c2c(Cl)cccc21,"inconclusive: 20 µM [inhibitor, single point]"
3,O=C(CCc1nc2ccccc2s1)N1CCN(C(=O)c2ccco2)CC1,"inconclusive: 20 µM [inhibitor, single point]"
4,CCCNC(=O)N1CC[C@@H]2[C@H]1C(=O)N(c1cccc(F)c1)C(=O)N2Cc1cccs1,"inconclusive: 0.178 µM [inhibitor, full curve, poor fit]"
5,O=C(NC1CCCCC1)N[C@H]1CO[C@H]2[C@@H]1OC[C@@H]2n1nnnc1Oc1ccc(-n2ccnc2)cc1,"inconclusive: 8.91 µM [inhibitor, single point]"
6,O=C(Cc1ccccc1)Nc1sc2c(c1C(=O)Nc1ccccc1Cl)CCC2,inactive
7,Cc1cc(C(=O)N[C@H](C)c2onc(-c3cccnc3)c2C(=O)O)no1,inactive
8,Cc1cc(=O)n(CC(=O)Nc2cccc(Cl)c2C)c(N2CCOCC2)n1,inactive
9,CC(C)c1nc2c(c(-c3ccc(O)cc3)n1)CCN(Cc1ccc(F)cc1)CC2,"inconclusive: 2 µM [inhibitor, partial curve, poor fit]"
10,Cc1cc(OCC(=O)NCC2(N3CCN(C)CC3)CCCCC2)cc(C)c1Cl,"inconclusive: 10 µM [inhibitor, partial curve, poor fit]"
11,CC(C)N1CCN(C2CCOC3(CCN(C(=O)Nc4ccccc4)CC3)C2)CC1 (stereo unspecified),inactive
12,COc1ccc(-c2cnc3n[nH]c(-c4ccc5c(c4)OCO5)c3n2)cc1,"inconclusive: 31.6 µM [inhibitor, single point]"
13,Cc1cc(C)cc(Nc2cc(-c3ccccc3)nc(C)n2)c1,active: 11.2 µM
14,CCOc1ccc(CCNC(=O)CN2C(=O)COc3ccc(S(=O)(=O)N4CCC(C)CC4)cc32)cc1,"inconclusive: 17.8 µM [inhibitor, single point]"
15,COCC1CN(Cc2ccc(Cl)cc2)CC12CCNCC2 (stereo unspecified),"inconclusive: 5.62 µM [inhibitor, partial curve, poor fit]"
16,O=C(c1ccco1)N1CC(F)(F)C[C@H]1c1nc(-c2ccncc2)no1,"inconclusive: 6.31 µM [inhibitor, single point]"
17,O=S(=O)(c1ccccc1)c1nnn2c1nc(NCc1cccs1)c1sccc12,"inconclusive: 17.8 µM [inhibitor, single point]"
18,COc1ccc(OC)c(CN2CC(Oc3ccccc3C(=O)NCc3ccccc3)C2)c1,active: 1.78 µM
19,COc1ccc(-c2cc(N3CCN(C(=O)Cc4ccc(F)cc4)CC3)n[nH]2)cc1,"inconclusive: 3.16 µM [inhibitor, single point]"
20,CCc1nncn1C1CCN(C(=O)c2nn(C)c3ccccc23)C1 (stereo unspecified),inactive
21,O=C(c1ccoc1)N1CCC2(CC1)CC(N(Cc1ccc(F)cc1)C1CC1)CCO2 (stereo unspecified),active: 12.6 µM
22,COc1ccc(CCn2cc3c(c2-c2ccccc2Br)c(=O)n(C)c(=O)n3C)cc1OC,"inconclusive: 11.2 µM [inhibitor, single point]"
